# The supplement of paper PMC8728848
# The other results are listed elsewhere or left out.
# B1: Apa (Mycobacterium tuberculosis), Rv1860 (protein)
# chain: MHQVDPNLTRRKGRLAALAIAAMASASLVTVAVPATANADPEPAPPVPTTAASPPSTAAAPPAPATPVAPPPPAAANTPNAQPGDPNAAPPPADPNAPPPPVIAPNAPQPVRIDNPVGGFSFALPAGWVESDAAHFDYGSALLSKTTGDPPFPGQPPPVANDTRIVLGRLDQKLYASAEATDSKAAARLGSDMGEFYMPYPGTRINQETVSLDANGVSGSASYYEVKFSDPSKPNGQIWTGVIGSPAANAPDAGPPQRWFVVWLGTANNPVDKGAAKALAESIRPLVAPPPAPAPAPAEPAPAPAPAGEVAPTPTTPTPQRTLPA
# Experiments:
# Assay in all cases: glycan array binding signal (z-score within array); higher = stronger binding
# Conditions in all cases: glycan notation: IUPAC condensed, linker removed
# [1] = target: Neu5Ac(a2-3)Gal(b1-3)[Neu5Ac(a2-6)]GlcNAc(b1-3)[Fuc(a1-3)[Gal(b1-4)]GlcNAc(b1-6)]Gal(b1-4)Glc
# Method in brief: (§1)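 Arrays were curated from the Consortium for Functional Glycomics database, 3228 in total, and kept only where the protein sequence was available. Binding is expressed as a within-array Z-score. This score was averaged across arrays of the same protein sequence at different concentrations or buffers and across linkers, and negative values can be read as non-binding.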
# [2] = target: Neu5Ac(a2-3)Gal(b1-3)]Neu5Ac(a2-3)Gal(b1-4)]GlcNAc
# Method in brief: as §1
# Neu5Ac(a2-3)Gal(b1-4)Glc = target: Neu5Ac(a2-3)Gal(b1-4)Glc
# Method in brief: as §1
# [3] = target: Neu5Ac(a2-3)Gal(b1-4)GlcNAc
# Method in brief: as §1
# [4] = target: Neu5Ac(a2-3)Gal(b1-4)GlcNAc(b1-2)Man
# Method in brief: as §1
# [5] = target: Neu5Ac(a2-3)Gal(b1-4)GlcNAc(b1-2)Man(a1-3)[GlcNAc(b1-4)][Neu5Ac(a2-3)Gal(b1-4)GlcNAc(b1-2)Man(a1-6)]Man(b1-4)GlcNAc(b1-4)GlcNAc
# Method in brief: as §1
# [6] = target: Neu5Ac(a2-3)Gal(b1-4)GlcNAc(b1-2)Man(a1-3)[Neu5Ac(a2-3)Gal(b1-4)GlcNAc(b1-2)Man(a1-6)]Man(b1-4)GlcNAc(b1-4)GlcNAc
# Method in brief: as §1
# [7] = target: Neu5Ac(a2-3)Gal(b1-4)GlcNAc(b1-2)Man(a1-3)[Neu5Ac(a2-3)Gal(b1-4)GlcNAc(b1-2)Man(a1-6)]Man(b1-4)GlcNAc(b1-4)[Fuc(a1-6)]GlcNAc
# Method in brief: as §1
# [8] = target: Neu5Ac(a2-3)Gal(b1-4)GlcNAc(b1-2)Man(a1-3)[Neu5Ac(a2-6)Gal(b1-4)GlcNAc(b1-2)Man(a1-6)]Man(b1-4)GlcNAc(b1-4)GlcNAc
# Method in brief: as §1
# [9] = target: Neu5Ac(a2-3)Gal(b1-4)GlcNAc(b1-2)[Neu5Ac(a2-3)Gal(b1-4)GlcNAc(b1-4)]Man(a1-3)[GlcNAc(b1-4)][Neu5Ac(a2-3)Gal(b1-4)GlcNAc(b1-2)[Neu5Ac(a2-3)Gal(b1-4)GlcNAc(b1-6)]Man(a1-6)]Man(b1-4)GlcNAc(b1-4)GlcNAc
# Method in brief: as §1
# [10] = target: Neu5Ac(a2-3)Gal(b1-4)GlcNAc(b1-2)[Neu5Ac(a2-3)Gal(b1-4)GlcNAc(b1-4)]Man(a1-3)[GlcNAc(b1-4)][Neu5Ac(a2-3)Gal(b1-4)GlcNAc(b1-4)Man(a1-6)]Man(b1-4)GlcNAc(b1-4)GlcNAc
# Method in brief: as §1
# [11] = target: Neu5Ac(a2-3)Gal(b1-4)GlcNAc(b1-2)[Neu5Ac(a2-3)Gal(b1-4)GlcNAc(b1-6)]Man(a1-6)[Neu5Ac(a2-3)Gal(b1-4)GlcNAc(b1-2)Man(a1-3)][GlcNAc(b1-4)]Man(b1-4)GlcNAc(b1-4)GlcNAc
# Method in brief: as §1
# [12] = target: Neu5Ac(a2-3)Gal(b1-4)GlcNAc(b1-3)Gal
# Method in brief: as §1
# [13] = target: Neu5Ac(a2-3)Gal(b1-4)GlcNAc(b1-3)Gal(b1-3)GlcNAc
# Method in brief: as §1
# [14] = target: Neu5Ac(a2-3)Gal(b1-4)GlcNAc(b1-3)Gal(b1-4)GlcNAc
# Method in brief: as §1
# [15] = target: Neu5Ac(a2-3)Gal(b1-4)GlcNAc(b1-3)Gal(b1-4)GlcNAc(b1-2)Man(a1-3)[Neu5Ac(a2-3)Gal(b1-4)GlcNAc(b1-3)Gal(b1-4)GlcNAc(b1-2)Man(a1-6)]Man(b1-4)GlcNAc(b1-4)GlcNAc
# Method in brief: as §1
# [16] = target: Neu5Ac(a2-3)Gal(b1-4)GlcNAc(b1-3)Gal(b1-4)GlcNAc(b1-3)Gal(b1-4)GlcNAc
# Method in brief: as §1
# [17] = target: Neu5Ac(a2-3)Gal(b1-4)GlcNAc(b1-3)Gal(b1-4)GlcNAc(b1-3)Gal(b1-4)GlcNAc(b1-2)Man(a1-3)[Neu5Ac(a2-3)Gal(b1-4)GlcNAc(b1-3)Gal(b1-4)GlcNAc(b1-3)Gal(b1-4)GlcNAc(b1-2)Man(a1-6)]GalNAc
# Method in brief: as §1
# [18] = target: Neu5Ac(a2-3)Gal(b1-4)GlcNAc(b1-3)Gal(b1-4)GlcNAc(b1-3)GalNAc
# Method in brief: as §1
# [19] = target: Neu5Ac(a2-3)Gal(b1-4)GlcNAc(b1-3)Gal(b1-4)GlcNAc(b1-3)[Neu5Ac(a2-3)Gal(b1-4)GlcNAc(b1-3)Gal(b1-4)GlcNAc(b1-6)]GalNAc
# Method in brief: as §1
# [20] = target: Neu5Ac(a2-3)Gal(b1-4)GlcNAc(b1-3)Gal(b1-4)GlcNAc(b1-6)[Gal(b1-3)]GalNAc
# Method in brief: as §1
# [21] = target: Neu5Ac(a2-3)Gal(b1-4)GlcNAc(b1-3)Gal(b1-4)[Fuc(a1-3)]GlcNAc
# Method in brief: as §1
# [22] = target: Neu5Ac(a2-3)Gal(b1-4)GlcNAc(b1-3)GalNAc
# Method in brief: as §1
# [23] = target: Neu5Ac(a2-3)Gal(b1-4)GlcNAc(b1-3)[Neu5Ac(a2-3)Gal(b1-4)GlcNAc(b1-6)]GalNAc
# Method in brief: as §1
# [24] = target: Neu5Ac(a2-3)Gal(b1-4)GlcNAc(b1-6)GalNAc
# Method in brief: as §1
# [25] = target: Neu5Ac(a2-3)Gal(b1-4)GlcNAc(b1-6)[Gal(b1-3)]GalNAc
# Method in brief: as §1
# [26] = target: Neu5Ac(a2-3)Gal(b1-4)GlcNAc(b1-6)[Neu5Ac(a2-3)Gal(b1-3)]GalNAc
# Method in brief: as §1
# [27] = target: Neu5Ac(a2-3)Gal(b1-4)GlcNAc6S
# Method in brief: as §1
# [28] = target: Neu5Ac(a2-3)Gal(b1-4)[Fuc(a1-3)]GlcNAc
# Method in brief: as §1
# [29] = target: Neu5Ac(a2-3)Gal(b1-4)[Fuc(a1-3)]GlcNAc(b1-2)Man
# Method in brief: as §1
# [30] = target: Neu5Ac(a2-3)Gal(b1-4)[Fuc(a1-3)]GlcNAc(b1-3)Gal
# Method in brief: as §1
# [31] = target: Neu5Ac(a2-3)Gal(b1-4)[Fuc(a1-3)]GlcNAc(b1-3)Gal(b1-4)GlcNAc
# Method in brief: as §1
# [32] = target: Neu5Ac(a2-3)Gal(b1-4)[Fuc(a1-3)]GlcNAc(b1-3)Gal(b1-4)[Fuc(a1-3)]GlcNAc(b1-3)Gal(b1-4)[Fuc(a1-3)]GlcNAc
# Method in brief: as §1
# [33] = target: Neu5Ac(a2-3)Gal(b1-4)[Fuc(a1-3)]GlcNAc(b1-3)GalNAc
# Method in brief: as §1
# [34] = target: Neu5Ac(a2-3)Gal(b1-4)[Fuc(a1-3)]GlcNAc(b1-6)[Gal(b1-3)]GalNAc
# Method in brief: as §1
# [35] = target: Neu5Ac(a2-3)Gal(b1-4)[Fuc(a1-3)]GlcNAc(b1-6)[Neu5Ac(a2-3)Gal(b1-3)]GalNAc
# Method in brief: as §1
# [36] = target: Neu5Ac(a2-3)Gal(b1-4)[Fuc(a1-3)]GlcNAc6S
# Method in brief: as §1
# [37] = target: Neu5Ac(a2-3)Gal6S(b1-4)GlcNAc
# Method in brief: as §1
binder,measurement,setting,value
B1,glycan array binding signal (z-score),[1],-0.364
same,glycan array binding signal (z-score),[2],-0.37
same,glycan array binding signal (z-score),Neu5Ac(a2-3)Gal(b1-4)Glc,-0.081
same,glycan array binding signal (z-score),[3],-0.293
same,glycan array binding signal (z-score),[4],1.24
same,glycan array binding signal (z-score),[5],-0.051
same,glycan array binding signal (z-score),[6],-0.603
same,glycan array binding signal (z-score),[7],0.28
same,glycan array binding signal (z-score),[8],-0.452
same,glycan array binding signal (z-score),[9],-0.443
same,glycan array binding signal (z-score),[10],-0.558
same,glycan array binding signal (z-score),[11],-0.538
same,glycan array binding signal (z-score),[12],-0.531
same,glycan array binding signal (z-score),[13],-0.635
same,glycan array binding signal (z-score),[14],-0.562
same,glycan array binding signal (z-score),[15],-0.312
same,glycan array binding signal (z-score),[16],-0.629
same,glycan array binding signal (z-score),[17],-0.042
same,glycan array binding signal (z-score),[18],-0.254
same,glycan array binding signal (z-score),[19],-0.438
same,glycan array binding signal (z-score),[20],-0.316
same,glycan array binding signal (z-score),[21],-0.539
same,glycan array binding signal (z-score),[22],-0.438
same,glycan array binding signal (z-score),[23],-0.436
same,glycan array binding signal (z-score),[24],0.015
same,glycan array binding signal (z-score),[25],-0.35
same,glycan array binding signal (z-score),[26],-0.334
same,glycan array binding signal (z-score),[27],-0.5
same,glycan array binding signal (z-score),[28],-0.292
same,glycan array binding signal (z-score),[29],1.62
same,glycan array binding signal (z-score),[30],-0.442
same,glycan array binding signal (z-score),[31],0.673
same,glycan array binding signal (z-score),[32],-0.14
same,glycan array binding signal (z-score),[33],0.227
same,glycan array binding signal (z-score),[34],0.242
same,glycan array binding signal (z-score),[35],0.026
same,glycan array binding signal (z-score),[36],-0.341
same,glycan array binding signal (z-score),[37],-0.642
